# Laboratory results taken from PMC4336329 (PLoS ONE, 2015).
# The whole screen tested about 310,000 compounds, of which about 2,200 (0.71%) showed an effect of 50% or more. Effects have a minus sign here. The list shows a part of the results.
# Molecular target: human ether-à-go-go-related gene (hERG) potassium channel (human, UniProt Q12809)
# Test: primary screen, population patch clamp on CHO cells stably expressing hERG
# Chain of human ether-à-go-go-related gene (hERG) potassium channel (Q12809 whole entry, looked up): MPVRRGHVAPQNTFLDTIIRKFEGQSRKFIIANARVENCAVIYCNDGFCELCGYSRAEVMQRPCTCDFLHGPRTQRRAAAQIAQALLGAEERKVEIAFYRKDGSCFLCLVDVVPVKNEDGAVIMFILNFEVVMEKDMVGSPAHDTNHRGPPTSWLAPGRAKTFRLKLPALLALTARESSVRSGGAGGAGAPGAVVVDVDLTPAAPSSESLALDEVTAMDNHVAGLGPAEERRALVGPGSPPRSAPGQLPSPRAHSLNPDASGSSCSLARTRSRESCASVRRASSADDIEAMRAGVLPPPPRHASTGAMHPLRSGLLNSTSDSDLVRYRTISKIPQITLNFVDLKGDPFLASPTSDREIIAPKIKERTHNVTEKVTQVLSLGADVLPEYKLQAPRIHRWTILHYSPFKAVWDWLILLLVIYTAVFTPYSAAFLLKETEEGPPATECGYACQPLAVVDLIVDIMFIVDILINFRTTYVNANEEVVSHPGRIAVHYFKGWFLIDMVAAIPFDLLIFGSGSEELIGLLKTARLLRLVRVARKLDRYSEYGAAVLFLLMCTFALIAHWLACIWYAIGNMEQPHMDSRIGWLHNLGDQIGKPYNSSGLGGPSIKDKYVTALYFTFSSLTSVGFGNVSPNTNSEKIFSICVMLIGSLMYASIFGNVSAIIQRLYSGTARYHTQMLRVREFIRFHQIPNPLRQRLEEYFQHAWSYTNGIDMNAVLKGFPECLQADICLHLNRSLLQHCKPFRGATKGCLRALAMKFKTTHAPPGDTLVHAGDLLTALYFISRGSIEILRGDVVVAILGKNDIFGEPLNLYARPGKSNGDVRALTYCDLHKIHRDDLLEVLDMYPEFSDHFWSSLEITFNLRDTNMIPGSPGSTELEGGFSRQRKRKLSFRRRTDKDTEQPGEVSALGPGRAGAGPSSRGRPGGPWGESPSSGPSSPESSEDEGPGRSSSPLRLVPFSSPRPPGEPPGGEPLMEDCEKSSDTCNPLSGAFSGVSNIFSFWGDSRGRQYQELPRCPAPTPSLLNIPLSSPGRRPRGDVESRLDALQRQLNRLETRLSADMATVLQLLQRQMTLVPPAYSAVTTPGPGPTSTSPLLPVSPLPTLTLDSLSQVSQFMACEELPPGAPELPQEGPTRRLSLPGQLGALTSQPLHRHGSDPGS
row,SMILES,"hERG current change (%, negative = inhibition) at 1uM"
1,CC(C)(C)OC(=O)NCc1ccc(NC(=O)c2nc[nH]c2C(=O)N[C@@H](Cc2ccccc2)C(=O)OCc2ccccc2)cc1,11.6%
2,COc1ccc(C=O)cc1COc1ccc(C)cc1[N+](=O)[O-],6.02%
3,COc1ccc2[nH]c3nc(SC(C)C)nnc3c2c1,9.94%
4,CCC(C)[C@H](N)c1nnc(SCC(=O)Nc2ccc(C)cc2C)o1 (some centres unmarked),-8.52%
5,O=C1CC(c2ccc3c(c2)OCO3)C2=C(CCCC2=O)N1 (centres unmarked),4.8%
6,CC(C)(C)C(=O)Nc1ccc(C(=O)N/N=C/C2CC3C=CC2C3)cc1 (centres unmarked),5.56%
7,CCS(=O)(=O)c1ccc(C(=O)NC2CC2)c(Cl)c1Cl,8.31%
8,CCOC(=O)c1ccc(OCC2NCCc3cc(OC)c(OC)cc32)cc1 (centres unmarked),6.45%
9,Fc1ccc(NCc2cccnc2)cc1,4.71%
10,COc1cccc(CNC(=O)C2CSC3(C)CCC(=O)N23)c1 (centres unmarked),9.43%
11,O=C(CCNC(=O)c1ccccc1Cl)NCc1ccco1,-0.237%
12,CCc1cccc(NS(=O)(=O)c2csc(C(N)=O)c2)c1,-3.63%
13,CCCC(=O)NC(c1ccc(Cl)cc1)c1ccc2cccnc2c1O (centres unmarked),8.76%
14,Cc1c(-c2ccccc2)oc2c(C(=O)OCC(=O)Nc3ccc(C(N)=O)cc3)cccc2c1=O,10.5%
15,Cc1onc(-c2c(F)cccc2Cl)c1C(=O)NCc1cccs1,-3.54%
16,O=C(Cc1ccc(S(=O)(=O)N2CCOCC2)s1)Nc1ccccc1N1CCCC1,1.94%
17,COC(=O)c1sc(NC(=O)COc2c(C)cccc2C)nc1C,7.51%
18,CCC(C)NC(=O)C1c2ccccc2C(=O)N1Cc1ccccc1OC (centres unmarked),-0.277%
19,CCOC(=O)c1c(C)[nH]c(C)c1S(=O)(=O)N(C)CC(=O)NCc1cccc(C)c1,4.31%

row,SMILES,"hERG current change (%, negative = inhibition) at 1uM"
1,Cc1cc(C(=O)O)c2ccccc2n1,14.2%
2,O=C(COC(=O)c1ccccc1NC(=O)c1ccco1)NCCC1=CCCCC1,6.95%
3,COc1ccc(CCNC(=O)COC(=O)Cn2cnc3c2c(=O)n(C)c(=O)n3C)cc1,12.9%
4,CC(=O)NCCC(=O)Nc1cc(S(=O)(=O)Nc2ccc(Cl)cc2)ccc1N1CCCC1,13.1%
5,COc1ccc(C(=O)CSc2nc3nc(C)cc(C)n3n2)cc1OC,6.89%
6,COc1ccc(C(=O)C2CCCN(Cc3ccsc3)C2)cc1OC (centres unmarked),-38.5%
7,NC(=O)c1cc2cc(Cl)ccc2oc1=Nc1cccc(C(F)(F)F)c1,21%
8,CCN1CCN(CC(=O)Nc2ccc3c(c2)OCCO3)C(=O)C1=O,20.5%
9,O=C(/C=C/c1ccco1)NCCCN1CCN(CCCNC(=O)/C=C/c2ccco2)CC1,10.1%
10,NC1=NC[C@H](Cc2ccc(O)cc2)N1CCCCC1CCCCC1,-1.97%
11,CCOc1ccc(-c2nnn(CC(=O)N3CCN(c4ccc(F)cc4)CC3)n2)cc1OCC,3.71%
12,CC(=O)Nc1ccc(C(=O)N(C)C(C(=O)Nc2ccc(C)cc2)c2ccccn2)cc1 (centres unmarked),5.83%
13,Cc1noc(C)c1C(=O)OCC(=O)N(C)C1CCS(=O)(=O)C1 (centres unmarked),12.7%
14,O=C(CNC(=S)NC(=O)C1CCCCC1)c1ccccc1,12.7%
15,C=CCn1c(C(c2ccccc2)c2ccccc2)n[nH]c1=S,2.8%
16,COc1cccc(Nc2nc3ccccc3n3nnnc23)c1,16.1%
17,Cc1ccc(NC(=O)c2cccc(C(=O)Nc3ccc(C)cc3C(=O)O)c2)c(C(=O)O)c1,17.2%
18,COc1cccc(NS(=O)(=O)c2c(C(=O)N3CCCCCC3)c(C)n(C)c2C)c1,9.88%
19,COC(=O)[C@@H](NC(=O)Nc1ccccc1F)C(C)C,12%

row,SMILES,"hERG current change (%, negative = inhibition) at 1uM"
1,Cc1cccc(CN2C(=O)c3ccccc3S(=O)(=O)c3ccc(C(=O)NCCCN4CCCC4)cc32)c1,9.32%
2,Cc1cc(C)n(CCc2nc(-c3ccc(F)cc3)cs2)n1,3.71%
3,COc1ccc(S(C)(=O)=O)cc1S(C)(=O)=O,12.3%
4,COc1ccccc1CNC(=O)CN1C(=O)COc2ccc(S(=O)(=O)N3CCCCC3)cc21,11.2%
5,C#CC(C)(C)NC(=O)c1sccc1Oc1ccc(F)cc1[N+](=O)[O-],13.1%
6,COC(=O)c1nnn(-c2cc(Cl)cc(Cl)c2)c1C(=O)OC,12.1%
7,COc1ccc(CC(NC(C)=O)C(=O)NC2CCN(C(=O)NCc3ccccc3)CC2)cc1 (centres unmarked),-2.96%
8,CC1CCCN(C(=O)COC(=O)c2cc([N+](=O)[O-])ccc2N2CCOCC2)C1 (centres unmarked),4.78%
9,CCCCCCCCn1c(N2CCN(c3cccc(Cl)c3)CC2)nc2c1c(=O)[nH]c(=O)n2C,12.2%
10,CCOC(=O)c1[nH]c(C)c(C(=O)NCc2ccc(Cl)cc2)c1C,-4.65%
11,COCCOC(=O)C1=C(N)Oc2c(oc(CO)cc2=O)C1c1c(F)cccc1Cl (centres unmarked),1.67%
12,CCCCn1c(=O)c(C(=O)Nc2cccc(C)c2)c(O)c2ccccc21,9.53%
13,O=C(Cc1ccccc1[N+](=O)[O-])NCCc1ccc(F)cc1,11.3%
14,Cc1cc(C(=O)CSc2cccc[n+]2[O-])c(C)n1-c1ccccc1,4.14%
15,O=C1CSC(=Nc2ccc(Cl)cc2)N1,8.94%
16,COC(CNC(=O)c1ccc2c(=O)n(Cc3ccc(Cl)cc3)c(=S)[nH]c2c1)OC,13.3%
17,CNC(=O)/C(C#N)=C/c1cccc(Oc2ccccc2)c1,-3.22%
18,CCOC(=O)N1CCN(Cc2c(NC(=O)c3ccco3)sc(C)c2C)CC1,1.13%
